Measured values taken from publication PMC4336329 (PLoS ONE, 2015).
The campaign covered roughly 310,000 compounds. About 2,200 (0.71%) showed an effect of 50% or more. Effects have a minus sign here. This is one part of the list.

What follows are compounds tested against human ether-à-go-go-related gene (hERG) potassium channel (human, UniProt Q12809) (assay: primary screen, population patch clamp on CHO cells stably expressing hERG).
human ether-à-go-go-related gene (hERG) potassium channel, sequence (Q12809 whole entry, looked up): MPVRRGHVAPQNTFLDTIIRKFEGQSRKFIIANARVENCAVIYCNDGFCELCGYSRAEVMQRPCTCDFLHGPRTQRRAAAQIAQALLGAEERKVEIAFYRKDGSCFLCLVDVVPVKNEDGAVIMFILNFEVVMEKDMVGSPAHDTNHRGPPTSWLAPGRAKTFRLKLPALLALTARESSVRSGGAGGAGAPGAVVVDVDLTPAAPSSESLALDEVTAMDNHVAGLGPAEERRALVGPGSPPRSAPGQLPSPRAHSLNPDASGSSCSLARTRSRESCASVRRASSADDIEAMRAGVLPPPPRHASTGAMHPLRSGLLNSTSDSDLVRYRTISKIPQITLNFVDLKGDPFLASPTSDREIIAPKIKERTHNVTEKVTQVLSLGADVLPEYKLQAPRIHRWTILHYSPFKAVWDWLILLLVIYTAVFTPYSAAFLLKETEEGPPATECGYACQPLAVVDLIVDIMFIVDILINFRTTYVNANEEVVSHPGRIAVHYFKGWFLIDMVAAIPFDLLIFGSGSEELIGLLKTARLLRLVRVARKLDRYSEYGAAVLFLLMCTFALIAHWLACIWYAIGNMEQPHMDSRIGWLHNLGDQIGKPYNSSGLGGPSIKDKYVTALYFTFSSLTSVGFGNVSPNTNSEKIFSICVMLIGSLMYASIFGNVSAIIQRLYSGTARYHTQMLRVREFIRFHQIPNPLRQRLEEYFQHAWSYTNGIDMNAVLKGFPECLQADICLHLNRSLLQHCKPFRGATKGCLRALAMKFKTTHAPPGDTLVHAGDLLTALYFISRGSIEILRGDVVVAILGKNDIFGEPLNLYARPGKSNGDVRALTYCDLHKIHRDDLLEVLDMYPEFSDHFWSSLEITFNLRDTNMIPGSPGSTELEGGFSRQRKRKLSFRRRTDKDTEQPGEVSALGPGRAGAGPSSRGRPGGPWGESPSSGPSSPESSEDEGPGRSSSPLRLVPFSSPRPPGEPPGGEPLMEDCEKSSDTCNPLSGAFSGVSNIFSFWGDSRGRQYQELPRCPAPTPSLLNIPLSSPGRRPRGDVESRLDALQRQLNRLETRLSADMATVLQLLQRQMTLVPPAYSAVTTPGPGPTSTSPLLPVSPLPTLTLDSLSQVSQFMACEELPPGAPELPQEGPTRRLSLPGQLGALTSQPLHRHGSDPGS

| SMILES | hERG current change (%, negative = inhibition) at 1uM |
| --- | --- |
| Cc1c(C(=O)NCc2cccs2)oc2ccccc12 | 4.62% |
| CCOc1ccc(C(C)NC(=O)c2cccnc2OCC)cc1OCC (stereo not drawn) | 13.3% |
| CC(=O)Nc1ccc(S(=O)(=O)NC2=NCN(CCOC(=O)c3ccccc3)CN2)cc1 | 4.56% |
| COc1cc(/C=N/NC(=O)c2ccc([N+](=O)[O-])cc2Cl)cc(Br)c1O | 13.1% |
| O=C(CCCc1cccs1)Nc1nccs1 | 28.1% |
| COc1ccc(C(CNC(=O)c2cccc(S(=O)(=O)Nc3ccccc3OC)c2)N2CCOCC2)cc1 (stereo not drawn) | -8.5% |
| C/C(=N\N1CCCCC1)c1c(O)[nH]c(=O)[nH]c1=O | 1.29% |
| COc1cccc(-n2c(SCC(=O)NCCC3=CCCCC3)nc3n[nH]c(C)c3c2=N)c1 | 4.2% |
| O=C(Cc1ccccc1[N+](=O)[O-])N1CCN(S(=O)(=O)c2ccccc2)CC1 | 10.4% |
| COc1cccc(C(=O)C2CCCN(C(=O)c3ccccn3)C2)c1 (stereo not drawn) | 9.39% |
| C[C@H](NC(=O)N1CCn2c1nc1ccccc12)C(=O)N1CCCCC1 | 15.1% |
| Cn1c(SCc2ccc3c(c2)OCO3)nnc1-c1ccccc1 | 10.4% |
| COC(=O)c1cnn(-c2cc(Oc3ccccc3)ncn2)c1N | -9.93% |
| Cc1ccc(NC(=O)COC(=O)c2csc3c2CCC(C)C3)cc1S(=O)(=O)N1CCCCC1 (stereo not drawn) | 4.05% |
| CCCn1c(N)c(N2CCCCC2)c(=O)n(CC(=O)Nc2ccccc2)c1=O | 14.7% |
| CN(CCO)C1=CC(=O)CC(C)(C)C1 | 11.2% |
| CC12CCC(C/C1=N/O)C2(C)C (stereo not drawn) | 10.6% |
| COc1ccccc1NC(=O)C1CCCN(S(=O)(=O)c2ccccc2)C1 (stereo not drawn) | 16.7% |
| CS(=O)(=O)N(CC(=O)Nc1ccc(F)cc1)C1CCCCC1 | 14.5% |
| Cc1ccc(S(=O)(=O)NCC(=O)OCN2C(=O)c3ccccc3C2=O)cc1 | 8.69% |
| O=C(NNc1ccccc1C(F)(F)F)c1cccs1 | 7.55% |
| CC(C)(C)n1cnc2cc(NCc3ccc(Br)cc3)ccc21 | 6.74% |
| CCNC(=S)N/N=C(\C)c1ccco1 | 18.4% |

| SMILES | hERG current change (%, negative = inhibition) at 1uM |
| --- | --- |
| O=C(Nc1ccc(O)cc1)c1cc(S(=O)(=O)N2CCCC2)ccc1Cl | 5.73% |
| C=C(C)CNC(=S)Nc1cccc2cnccc12 | 16.7% |
| Cc1nc(C)c(C(=O)NNC(=O)Nc2ccc(Cl)cc2)s1 | 15.2% |
| Cc1ccc(OCc2nnc(SCC(=O)N3CCc4ccccc43)n2C)cc1 | 19.9% |
| COc1ccc(CCC(=O)OCC(=O)Nc2ccc(C)c(S(=O)(=O)N(C)C)c2)cc1 | 12.5% |
| CCCn1c(C(C)C)n[nH]c1=S | 12.2% |
| CN(CC(=O)Nc1ccc(F)c(F)c1F)c1ncnc2sccc12 | 11.7% |
| Cc1cc(SCC(=O)c2ccc3c(c2)OCO3)nc2ccccc12 | 2.06% |
| O=C(Nc1ccc(CN2CCOCC2)cc1)c1ccc(Br)o1 | 15.2% |
| O=C(NCc1cccnc1)c1ccc2c(c1)C(=O)N(Cc1ccccc1)C2=O | 4.43% |
| CN(C)CCCN(C(=O)C1COc2ccccc2O1)c1nc2ccc(F)cc2s1.Cl (stereo not drawn) | -64.9% |
| COC(=O)c1ccc(CSc2ccccc2C)o1 | 11.1% |
| CCOC(=O)N1CCC(=NNS(=O)(=O)c2cccc([N+](=O)[O-])c2)CC1 | -0.925% |
| COc1ccc(C2(CCN=Cc3ccc(N(C)C)cc3)CCOC(C)(C)C2)cc1 (stereo not drawn) | 6.8% |
| Fc1cccc(NCc2cn3ccccc3n2)c1 | 14.3% |
| CCOC(=O)C1=C(N)OC2=C(C(=O)CCC2)C12C(=O)N(CC(N)=O)c1ccccc12 (stereo not drawn) | 2.29% |
| CCOC(=O)N1CCN(C(=O)c2ccc3c(=O)n(Cc4ccccc4OC)c(=S)[nH]c3c2)CC1 | 1.54% |
| Cc1ccc(S(=O)(=O)NCCC(=O)N2CCCCCCC2)cc1 | 22.3% |
| O=C(COC(=O)CCC(=O)c1ccc(F)cc1)Nc1cccc(S(=O)(=O)N2CCOCC2)c1 | 2.32% |
| COc1ccc(NC(=O)CSc2ccc(-c3cccnc3)nn2)c(OC)c1 | 4.16% |
| COc1ccc(CCC(=O)N2CCN(S(=O)(=O)c3ccc(C)cc3)CC2)cc1 | 12.5% |
| O=C(O)c1ccc(S(=O)(=O)c2ccc3c(c2)C(=O)N(c2ccc(Br)cc2)C3=O)cc1 | 10.5% |
